# Data reported in the BET-seq Pho4 binding data (Le et al. 2018).
# Some of the results follow. These are noisy estimates, calculated here from bound and input reads.
# Target: T1, Pho4 (S. cerevisiae) (UniProt P07270)
# T1 sequence: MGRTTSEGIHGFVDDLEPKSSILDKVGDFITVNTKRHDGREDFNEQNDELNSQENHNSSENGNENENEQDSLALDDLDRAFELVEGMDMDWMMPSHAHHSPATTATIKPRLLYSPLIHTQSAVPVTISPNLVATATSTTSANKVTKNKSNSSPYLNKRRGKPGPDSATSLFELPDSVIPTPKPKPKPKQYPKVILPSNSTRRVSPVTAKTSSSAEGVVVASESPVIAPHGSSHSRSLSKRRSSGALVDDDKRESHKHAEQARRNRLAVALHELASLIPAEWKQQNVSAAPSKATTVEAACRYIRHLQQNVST
# Assay: relative binding free energy (BET-seq); higher = weaker binding
# Conditions: reference: library average
row,Sequence,relative binding free energy
1,TGATTCACGTGTGCGT,0.25 kcal/mol
2,AAGAGCACGTGAGGGA,0.1 kcal/mol
3,AGGATCACGTGGGGAA,0.03 kcal/mol
4,TTAGGCACGTGTATTA,0.05 kcal/mol
5,GTTGGCACGTGGAGTA,-0.16 kcal/mol
6,TGCGGCACGTGGACTT,-0.03 kcal/mol
7,GTGTTCACGTGATAAT,0.35 kcal/mol
8,CGTTTCACGTGGTGGC,0.2 kcal/mol
9,GGATTCACGTGGTGAT,0.34 kcal/mol
10,TGGGGCACGTGTTGCT,-0.06 kcal/mol
11,TGATACACGTGGCTTT,-0.03 kcal/mol
12,TGTATCACGTGGGGCG,-0.09 kcal/mol
13,TTAATCACGTGTTGAA,0.13 kcal/mol
14,TTAGTCACGTGGATCT,0.04 kcal/mol
15,GAAGGCACGTGGAGAG,-0.06 kcal/mol
16,GAGGTCACGTGGATCA,0.35 kcal/mol
17,ATATGCACGTGGAAGG,-0.08 kcal/mol
18,GAGGTCACGTGGGCGC,0.02 kcal/mol
19,CTACGCACGTGTGGAG,0.06 kcal/mol
20,ACTTACACGTGGGGCG,0.17 kcal/mol
21,AATAGCACGTGAGGCG,0.12 kcal/mol
22,TGTGCCACGTGTGGAG,-0.03 kcal/mol
23,TATCTCACGTGGTCGG,0.09 kcal/mol

row,Sequence,relative binding free energy
1,GGGTACACGTGGCTGA,0.05 kcal/mol
2,AGTTTCACGTGGTCCG,0.3 kcal/mol
3,GCGATCACGTGGGGGC,0.2 kcal/mol
4,AGTGGCACGTGATGTT,0.07 kcal/mol
5,TTAGACACGTGCTGGT,0.01 kcal/mol
6,TGCTGCACGTGGAGTT,0.04 kcal/mol
7,TTATCCACGTGTGGCG,0.14 kcal/mol
8,CAAAGCACGTGTAGGG,-0.01 kcal/mol
9,TGTAGCACGTGGAGTG,-0.16 kcal/mol
10,AAACTCACGTGGTTTG,0.29 kcal/mol
11,GTAGGCACGTGACGTA,0.16 kcal/mol
12,AGGATCACGTGAGCGG,0.29 kcal/mol
13,TTTGTCACGTGCTGAG,0.08 kcal/mol
14,TGGTTCACGTGGTCGG,0.32 kcal/mol
15,CTGGCCACGTGGGGAG,-0.16 kcal/mol
16,GCGTTCACGTGATTGA,0.51 kcal/mol
17,TTTCCCACGTGTGGTA,0.1 kcal/mol
18,GTCAGCACGTGGGTCG,-0.18 kcal/mol
19,ATAAGCACGTGGCTTG,-0.14 kcal/mol
20,GGTTACACGTGGGCAT,0.03 kcal/mol
21,TGACTCACGTGTTATT,0.09 kcal/mol
22,GTAGGCACGTGAACGT,0.1 kcal/mol
23,GTAAGCACGTGGTGAA,-0.22 kcal/mol

row,Sequence,relative binding free energy
1,GGTATCACGTGTTCTA,0.3 kcal/mol
2,TTTGGCACGTGTATAC,-0.12 kcal/mol
3,GTGAGCACGTGAGTCG,0.19 kcal/mol
4,TGTTACACGTGCATTT,0.19 kcal/mol
5,CTAAGCACGTGGGGGG,-0.31 kcal/mol
6,GGTGGCACGTGTGTCT,-0.04 kcal/mol
7,GATGACACGTGGTGGT,-0.06 kcal/mol
8,TGGGTCACGTGTGGCA,0.19 kcal/mol
9,ATGTGCACGTGGCGAG,0.01 kcal/mol
10,GACGTCACGTGTTAAG,0.35 kcal/mol
11,GGTCACACGTGTGGTC,0.18 kcal/mol
12,GAAGTCACGTGTGGTC,0.17 kcal/mol
13,GGAATCACGTGTGATA,0.16 kcal/mol
14,GATTACACGTGCTGTT,0.12 kcal/mol
15,GGCAACACGTGGTTTG,0.04 kcal/mol
16,TAGTGCACGTGTAAGG,0.1 kcal/mol
17,TGAGGCACGTGATTAT,-0.16 kcal/mol
18,GAGTGCACGTGTGGTA,0.19 kcal/mol
19,TAGGACACGTGTCAGT,0.03 kcal/mol
20,TTCTTCACGTGTTGTA,0.24 kcal/mol
21,CTTTGCACGTGGCGTG,-0.12 kcal/mol
22,AATGTCACGTGGCTTG,0.06 kcal/mol
23,GGCGACACGTGGGGCG,-0.15 kcal/mol

row,Sequence,relative binding free energy
1,AGGTTCACGTGGTCCG,0.2 kcal/mol
2,GTGTGCACGTGGGGGG,-0.16 kcal/mol
3,TTTGTCACGTGGGTGT,0.03 kcal/mol
4,ACCTTCACGTGTAGGG,0.3 kcal/mol
5,CTTTTCACGTGGTGGT,0.18 kcal/mol
6,TTTGGCACGTGCGGGC,-0.21 kcal/mol
7,CGTTGCACGTGGAGCT,0.02 kcal/mol
8,TTAGGCACGTGTATAT,-0.07 kcal/mol
9,ATAGACACGTGGTGGG,-0.05 kcal/mol
10,GGTTGCACGTGAGGAA,0.31 kcal/mol
11,TTCTTCACGTGGTATA,0.26 kcal/mol
12,ATTATCACGTGTCGCG,0.29 kcal/mol
13,TTTTGCACGTGCGATA,0 kcal/mol
14,TTGGTCACGTGACATT,0.18 kcal/mol
15,GGTGTCACGTGGTTTT,0.13 kcal/mol
16,TCGGACACGTGGGTGG,-0.08 kcal/mol
17,TATGGCACGTGCGGCG,-0.13 kcal/mol
18,AGAGGCACGTGAATTT,0.17 kcal/mol
19,CGGTGCACGTGTGATA,0.12 kcal/mol
20,TTTCGCACGTGACATG,0.2 kcal/mol
21,GTCGGCACGTGGCAGT,-0.13 kcal/mol
22,AGGACCACGTGGGGGG,-0.23 kcal/mol
23,ATTAACACGTGGATTT,-0.2 kcal/mol

row,Sequence,relative binding free energy
1,TGGTGCACGTGGGCGA,0 kcal/mol
2,GTAGGCACGTGAGGTG,0.19 kcal/mol
3,GAGGTCACGTGTTTTT,0.16 kcal/mol
4,TCGTTCACGTGGATAG,0.28 kcal/mol
5,TATGTCACGTGACTAG,0.09 kcal/mol
6,ACAGTCACGTGTTTAT,0.16 kcal/mol
7,CTGGACACGTGTGATT,0.2 kcal/mol
8,TGCTGCACGTGTGATA,-0.03 kcal/mol
9,GCGATCACGTGTGAGT,0.39 kcal/mol
10,TTAAACACGTGTATTG,0 kcal/mol
11,CCTTGCACGTGAGGTT,0.19 kcal/mol
12,TTGGCCACGTGAGTGG,0.19 kcal/mol
13,TTCTGCACGTGTGATA,-0.03 kcal/mol
14,AATCGCACGTGTTGGA,0.04 kcal/mol
15,TTTGTCACGTGATGAA,0.14 kcal/mol
16,GGAGCCACGTGGGTGT,-0.14 kcal/mol
17,TTAGTCACGTGAAGCG,0.24 kcal/mol
18,TTAAGCACGTGAGATA,0.43 kcal/mol
19,GTTGCCACGTGTTAAG,0.11 kcal/mol
20,GGTTACACGTGTCGAA,0.28 kcal/mol
21,TTTGCCACGTGTTGAG,-0.13 kcal/mol
22,GAAGTCACGTGAAGTT,0.44 kcal/mol
23,TGATGCACGTGGAGTG,-0.03 kcal/mol
